Assay results reported in PubChem BioAssay AID651820 (National Center for Advancing Translational Sciences (NCATS), 2012).
The campaign covered roughly 340,000 compounds. About 12,000 (3.5%) were called active. Inconclusive results, whose numbers are uncertain, are shown with a selection of clear calls. Calls follow the shape of the dose curve; as a rule, active = well fitted inhibition curve with a large enough effect; inconclusive = small, poorly fitted or top-dose-only effect, or another doubt; inactive = no such curve, though single readings can be large or run the other way. Potencies of inconclusive entries are left out as doubtful fits.
% is scaled to controls: 0 for no effect and ±100 for the full control effect; potency is read from the fitted curve at half-maximal effect; tags tell the direction and shape of the fitted curve.

Experiment: qHTS Assay for Inhibitors of Hepatitis C Virus (HCV)
Conditions: Huh7.5.1 HCVcc-Cre (HCVcc is cell-culture hepatitis C virus) infection, luciferase reporter, 44 h; activity change, negative = inhibition: at 41.8 µM (top of the series)
In short: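 1,000 cells/well; 4 h culture; + compound; + HCVcc-Cre (~0.5 moi); 44 h; luciferase substrate, RT 15 min; read 15 sec.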
With CCOC(=O)c1csc(NC(=O)c2ccc(OCC)cc2)n1 the Potency was active: 2.51 µM. In the case of CC(OC(=O)c1cc2sccc2n1C)C(=O)NC(C)(C)C (stereo not given), the Potency was active: 10 µM. With O=C(Nc1c(Br)cc2c(c1Br)Cc1ccccc1-2)C(F)(F)F the Potency was inconclusive [inhibitor, full curve]. With COc1ccccc1-c1ccc(Nc2ccc(C(=O)N3CCOCC3)cc2)nn1 the Potency was inconclusive [inhibitor, partial curve]. With CCc1nc(SCc2ccc(F)cc2)n[nH]1 the Potency was “inactive”. With COc1ccc(CCNC(=O)CSc2ccc(-c3ccccc3)nn2)cc1 the Potency was “inactive”. For COc1ccccc1NC(=O)Cc1nnc(SCC(=O)NC2=NCCS2)n1C, the Potency was “inactive”. In the case of CCc1cc(C(=O)Nc2ccc(OC)nc2)sc1C, the Potency was inconclusive [inhibitor, partial curve, poor fit]. For O=C(C1CCC(Cn2c(=S)[nH]c3ccccc3c2=O)CC1)N1CCN(c2ccccn2)CC1 (stereo not given), the Potency was active: 12.6 µM. For CCOc1ccc(-n2c(-c3ccccc3)c[n+]3c2CCCCC3)cc1, the Potency was inconclusive [inhibitor, partial curve]. For CC1C(=O)N(Cc2ccc(F)cc2)c2ccccc2N1C(=O)c1c(F)cccc1F (stereo not given), the Potency was inconclusive [inhibitor, single point]. In the case of CCOc1ccc(S(=O)(=O)N2CCC(C(=O)NCc3cccnc3)CC2)cc1, the Potency was “inactive”. In the case of COc1cccc(C(=O)Nc2c(C(N)=O)oc3ccccc23)c1, the Potency was inconclusive [inhibitor, single point]. With COc1ccc2c(CC#N)c[nH]c2c1 the Potency was “inactive”. In the case of O=C(NCc1ccccc1)C(c1ccc(Cl)cc1)N(C(=O)c1csnn1)C1CC1 (stereo not given), the Potency was “inactive”. With Cc1cc(C)c(Cn2cnc(-c3ccc([N+](=O)[O-])cc3)c2)c(C)c1 the Potency was active: 11.2 µM. In the case of CC(C)C(C(=O)NCC1CCCO1)N(C(=O)CNS(=O)(=O)c1ccccc1)C1CCCCC1 (stereo not given), the Potency was “inactive”. For O=C(Oc1ccc(-c2nnco2)cc1)N(c1ccccc1)c1ccccc1, the Potency was “inactive”. In the case of O=C(NC1CCCCC1)NS(=O)(=O)c1ccc2c(c1)CCC2, the Potency was “inactive”. For O=C(CSc1nc2ccccc2[nH]1)Nc1ccc2c(c1)CCC2, the Potency was “inactive”. With Cc1cc(C(=O)COC(=O)c2ccncc2)c(C)n1CCc1ccc(F)cc1 the Potency was inconclusive [inhibitor, full curve, poor fit]. For Cc1[nH]c2ccc(F)cc2c1CCN1C(=O)OC(C)(C)C1(C)O (stereo not given), the Potency was “inactive”. With O=C1COc2ccc(C(=O)COC(=O)/C=C/c3ccc(Br)o3)cc2N1 the Potency was inconclusive [inhibitor, partial curve]. With CCCC1=Nc2cc(C(=O)N3CCN(c4ccccn4)CC3)ccc2Sc2ccc(C)cc21 the Potency was active: 11.2 µM. With CN(c1ccccc1)S(=O)(=O)c1ccc(Cl)c(C(=O)Nc2ccc(-c3nc4ccccc4[nH]3)cc2)c1 the Potency was inconclusive [inhibitor, partial curve]. For COc1ccc(N2Cc3ccccc3C2)cc1Cl, the Potency was inconclusive [inhibitor, single point]. For O=C1N/C(=C/c2cccs2)C(=O)N1Cc1ccccc1F, the Potency was “inactive”. For O=C1c2ccccc2C(=O)N1CSc1nnc2c3ccccc3n(CCc3ccccc3)c2n1, the Potency was “inactive”. For Cc1ccc(C(c2ccc(C)o2)c2cccc([N+](=O)[O-])c2O)o1, the Potency was “inactive”. For O=[N+]([O-])c1cc(Cl)c(Cl)c(Cl)c1Cl, the Potency was “inactive”. In the case of CC(=O)N1c2ccc(S(=O)(=O)N3CCCC(C(=O)Nc4ccc(C)cc4C)C3)cc2CC1C (stereo not given), the Potency was “inactive”. For CN=c1scc(-c2cc(OC)ccc2OC)n1/N=C/c1c(C)[nH]c2ccccc12, the Potency was inconclusive [inhibitor, single point]. In the case of Cc1ccccc1OCC(=O)N/N=C/c1ccc([N+](=O)[O-])o1, the Potency was inconclusive [inhibitor, single point]. In the case of COc1cc(C(O)C(=O)O)ccc1O (stereo not given), the Potency was “inactive”. With CCCc1nc2ccccc2c(=O)n1/N=C/c1ccccc1O the Potency was inconclusive [inhibitor, single point]. For CCOC(=O)N/N=C(\C)c1ccc(Br)cc1, the Potency was “inactive”. For COc1cccc(-c2nn(-c3ccccc3)cc2C(=O)OCC(=O)Nc2ncc(Cl)cc2Cl)c1, the Potency was inconclusive [inhibitor, partial curve]. In the case of CC(C)N1CCC(N2CCN(C/C=C/c3ccc(F)cc3)CC2CCO)CC1 (stereo not given), the Potency was active: 10 µM. In the case of COc1ccc2cc1Oc1ccc(cc1)C[C@H]1c3c(cc4c(c3Oc3cc5c(cc3OC)CCN(C)[C@@H]5C2)OCO4)CCN1C, the Potency was active: 14.1 µM. In the case of Cc1ccc(S(=O)(=O)N2CCN(CC(=O)Nc3ccccc3C(=O)NC3CC3)CC2)cc1, the Potency was inconclusive [inhibitor, partial curve]. For COc1ccc(OC(C)C(=O)N(C)Cc2nc(-c3ccc(OC)cc3)no2)cc1 (stereo not given), the Potency was inconclusive [inhibitor, single point]. With N#Cc1nc(-c2ccco2)oc1N1CCc2ccccc2C1 the Potency was inconclusive [inhibitor, partial curve, poor fit]. With O=C(N/N=C/c1cc(Cl)cc(Cl)c1O)c1ccncc1 the Potency was inconclusive [inhibitor, single point]. For CC(=O)c1c(C)[nH]c(C(=O)CSc2nnc(-c3ccco3)n2Cc2ccccc2)c1C, the Potency was inconclusive [inhibitor, full curve]. For COc1ccc(S(=O)(=O)NCC(=O)Nc2ccc3c(c2)OCCO3)cc1OC, the Potency was “inactive”. For Cc1ccc2cc(CN(CCN3CCCC3)C(=O)Nc3ccc(F)cc3)c(=O)[nH]c2c1C, the Potency was inconclusive [inhibitor, full curve]. In the case of CCCOc1ccc(C(=O)NCCC(=O)NCCCC(=O)O)cc1, the Potency was inconclusive [inhibitor, single point]. With CCOc1ccc(NS(=O)(=O)c2ccc(C(=O)N3CCN(c4ncccn4)CC3)cc2)cc1 the Potency was inconclusive [inhibitor, single point]. In the case of CCOC(=O)CSc1nc2ccccc2c(=O)n1CC1COc2ccccc2O1 (stereo not given), the Potency was active: 2.51 µM. For OCC1(Cc2ccc(F)cc2)CCCN(CCc2ccccc2)C1 (stereo not given), the Potency was “inactive”. For CCCC(c1nnnn1Cc1ccc(F)cc1)N1CCN(C)CC1 (stereo not given), the Potency was “inactive”. In the case of COP(=O)(OC)c1nc(-c2ccc(C)cc2)oc1N1CCCCC1, the Potency was inconclusive [inhibitor, single point]. With Cc1cccc(NC(=O)/C(=C\c2ccc([N+](=O)[O-])o2)NC(=O)c2ccc(Cl)cc2)c1 the Potency was inconclusive [inhibitor, single point]. For COCCn1c(-c2ccc(-c3ccc([N+](=O)[O-])cc3Br)o2)nc2c1c(=O)[nH]c(=O)n2CC(C)C, the Potency was inconclusive [inhibitor, single point]. With Cc1onc(-c2c(F)cccc2Cl)c1C(=O)OCC(=O)c1c[nH]c2ccccc12 the Potency was inconclusive [inhibitor, partial curve]. In the case of Cc1cc(C)cc(OCC(=O)Nc2nonc2NC(=O)COc2cc(C)cc(C)c2)c1, the Potency was inconclusive [inhibitor, single point]. With CCNc1nc(Oc2ccc(=O)n(-c3ccccc3)n2)nc(N2CCOCC2)n1 the Potency was “inactive”. With COc1ccc(N2CCN(CC(O)COc3ccc4c(c3)CCC4)CC2)cc1 (stereo not given) the Potency was inconclusive [inhibitor, single point]. With O=c1cc(CNc2ccc(Br)cc2)nc2sccn12 the Potency was “inactive”. With O=C(NCCc1ccccc1)c1c[nH]c2ccc(F)cc2c1=O the Potency was “inactive”. In the case of CCCC[n+]1ccn(C2=C([O-])c3ccccc3C(=O)/C2=N\S(=O)(=O)c2ccccc2)c1, the Potency was active: 11.2 µM. In the case of CC(C)CNC(=S)N1CCC(NC(=O)c2ccco2)CC1, the Potency was “inactive”. For CCOC(=O)c1c(/N=C/N(C)C)sc(/C=N/Nc2ccccc2)c1-c1ccccc1Cl, the Potency was active: 6.31 µM. For CCOC(=O)c1c(C=O)c(C)n(Cc2ccccc2Cl)c1C, the Potency was inconclusive [inhibitor, single point]. For Cc1cc(C(=O)CSc2nnc(Nc3ccccc3F)s2)c(C)n1CC1CCCO1 (stereo not given), the Potency was active: 6.31 µM. For CCN(CC(=O)NCc1ccc(Cl)cc1)C(=O)COc1ccc(Cl)cc1Br, the Potency was inconclusive [inhibitor, full curve, poor fit]. For Cc1ccc2cc(/C=C/C(=O)c3ccco3)c(Cl)nc2c1, the activity change, negative = inhibition was inconclusive: -82.7% [inhibitor]. In the case of COc1ccc(C)cc1NC(=O)C1CCN(C(=O)Cc2ccccc2)CC1, the Potency was inconclusive [inhibitor, full curve, poor fit]. For COc1ccccc1C=CC(=O)C=Cc1ccccc1OC, the Potency was inconclusive [inhibitor, partial curve]. In the case of CCOC(=O)CN1N=C(/C=C/c2ccc(C)cc2)CCC1=O, the Potency was inconclusive [inhibitor, partial curve]. In the case of CC1CN(C(=O)CCC(=O)NCCCN2CCN(Cc3ccccc3)CC2)c2cc(Cl)ccc2O1 (stereo not given), the Potency was inconclusive [inhibitor, partial curve]. With COc1ccc(N2C(=O)C3C4C=CC(C4)C3C2=O)c(OC)c1 (stereo not given) the Potency was “inactive”. With Cc1ccc(Cn2ccc(NC(=O)c3nc4ncccn4n3)n2)cc1 the Potency was “inactive”. With Cc1nc(Cl)sc1C(=O)NC(C)c1ccc(Cl)cc1 (stereo not given) the Potency was inconclusive [inhibitor, single point]. For CSc1ccc(CN2CCN(CCC(C)C)C(CCO)C2)cc1 (stereo not given), the Potency was inconclusive [inhibitor, single point].
